Data reported in US20250243260A1 (ALPINE IMMUNE SCIENCES, published 2025).
Positions count from the first letter of the chain named. In names and notes the source's numbering stands.

B1: CD80_172-Fc, variant CD80 IgV-Fc K9R/E10S/V11Y/M42L/F59M/V68M/L85E (Fc fusion)
chain: VIHVTKEVRSYATLSCGHNVSVEELAQTRIYWQKEKKMVLTLMSGDMNIWPEYKNRTIMDITNNLSIMILALRPSDEGTYECVVEKYEKDAFKREHLAEVTLSVKADGSGGGGS[omitted - human IgG4 Fc with S228P (EU numbers)]
notes: variant IgV - GSGGGGS - human IgG4 Fc (S228P)
B2: CD80_173-Fc, variant CD80 IgV-Fc V11Y/T28Y/M47L/L85E (Fc fusion)
chain: B1 chain with R9K, S10E, T28Y, L42M, M47L, M59F, M68V
notes: as for B1
B3: CD80_175-Fc, variant CD80 IgV-Fc E10S/V11F/T28Y/M47L/T62S (Fc fusion)
chain: B1 chain with R9K, Y11F, T28Y, L42M, M47L, M59F, T62S, M68V, E85L
notes: as for B1
B4: CD80_176-Fc, variant CD80 IgV-Fc E10R/H18Y/A26G/E35D/V68L/L85E (Fc fusion)
chain: B1 chain with R9K, S10R, Y11V, H18Y, A26G, E35D, L42M, M59F, M68L
notes: as for B1
B5: CD80_177-Fc, variant CD80 IgV-Fc E10G/V11W/V22S/T28P/A71G/E81K/Y87R (Fc fusion)
chain: VIHVTKEVKGWATLSCGHNVSSEELAQPRIYWQKEKKMVLTMMSGDMNIWPEYKNRTIFDITNNLSIVILGLRPSDEGTYKCVVLKREKDAFKREHLAEVTLSVKADGSGGGGS[omitted - human IgG4 Fc with S228P (EU numbers)]
notes: as for B1
B6: CD80_178-Fc, variant CD80 IgV-Fc V11Y/T28Y/L85E/Y87I (Fc fusion)
chain: B1 chain with R9K, S10E, T28Y, L42M, M59F, M68V, Y87I
notes: as for B1
B7: CD80_179-Fc, variant CD80 IgV-Fc H18F/M42G/F59Y/V68N (Fc fusion)
chain: B1 chain with R9K, S10E, Y11V, H18F, L42G, M59Y, M68N, E85L
notes: as for B1
B8: CD80_180-Fc, variant CD80 IgV-Fc E10G/V11W/T28Y/M47L (Fc fusion)
chain: B5 chain with S22V, P28Y, M47L, G71A, K81E, R87Y
notes: as for B1
B9: CD80_182-Fc, variant CD80 IgV-Fc E10G/V11W/E35G/M47L/A71G/Y87R (Fc fusion)
chain: B5 chain with S22V, P28T, E35G, M47L, K81E
notes: as for B1
B10: CD80_183-Fc, variant CD80 IgV-Fc V11Y/T28Y/M47L/A71G/Y87R (Fc fusion)
chain: B5 chain with G10E, W11Y, S22V, P28Y, M47L, K81E
notes: as for B1
B11: CD80_184-Fc, variant CD80 IgV-Fc V11Y/A26Q/M47L/A71G/Y87R (Fc fusion)
chain: B5 chain with G10E, W11Y, S22V, A26Q, P28T, M47L, K81E
notes: as for B1
B12: CD80_186-Fc, variant CD80 IgV-Fc E7K/V11W/N63H/A71G/Y87K (Fc fusion)
chain: B5 chain with E7K, G10E, S22V, P28T, N63H, K81E, R87K
notes: as for B1
B13: CD80_187-Fc, variant CD80 IgV-Fc V11Y/H18Y/E35G/L85Q (Fc fusion)
chain: B1 chain with R9K, S10E, H18Y, E35G, L42M, M59F, M68V, E85Q
notes: as for B1
B14: CD80_189-Fc, variant CD80 IgV-Fc E10G/V11W/M47V/L85E (Fc fusion)
chain: B5 chain with S22V, P28T, M47V, G71A, K81E, L85E, R87Y
notes: as for B1
B15: CD80_190-Fc, variant CD80 IgV-Fc T28Y/M47L (Fc fusion)
chain: B5 chain with G10E, W11V, S22V, P28Y, M47L, G71A, K81E, R87Y
notes: as for B1
B16: CD80_191-Fc, variant CD80 IgV-Fc V11Y/T28Y/M47L/V68L/L85E (Fc fusion)
chain: B1 chain with R9K, S10E, T28Y, L42M, M47L, M59F, M68L
notes: as for B1
B17: CD80_192-Fc, variant CD80 IgV-Fc E7N/E35D/T101R (Fc fusion)
chain: B5 chain with E7N, G10E, W11V, S22V, P28T, E35D, G71A, K81E, R87Y, T101R
notes: as for B1
B18: CD80_193-Fc, variant CD80 IgV-Fc V11Y/M42W/T62A/L85E (Fc fusion)
chain: B1 chain with R9K, S10E, L42W, M59F, T62A, M68V
notes: as for B1
B19: CD80_197-Fc, variant CD80 IgV-Fc V11Y/E35D/Y87Q/T101R (Fc fusion)
chain: B5 chain with G10E, W11Y, S22V, P28T, E35D, G71A, K81E, R87Q, T101R
notes: as for B1
B20: CD80_198-Fc, variant CD80 IgV-Fc H18Y/A26E/R29S/E35D/M47L/V68M/A71G/E77G/D90G (Fc fusion)
chain: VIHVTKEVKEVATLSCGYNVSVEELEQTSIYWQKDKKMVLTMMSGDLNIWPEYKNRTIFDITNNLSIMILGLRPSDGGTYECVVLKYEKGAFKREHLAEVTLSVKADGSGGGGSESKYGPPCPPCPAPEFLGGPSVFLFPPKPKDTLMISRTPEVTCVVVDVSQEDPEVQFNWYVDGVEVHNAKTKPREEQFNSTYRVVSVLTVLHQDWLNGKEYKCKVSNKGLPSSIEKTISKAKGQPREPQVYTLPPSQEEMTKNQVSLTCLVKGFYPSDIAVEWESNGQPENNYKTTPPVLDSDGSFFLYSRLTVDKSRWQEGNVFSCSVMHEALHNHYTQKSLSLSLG
notes: as for B1
B21: CD80_199-Fc, variant CD80 IgV-Fc E10G/H18Y (Fc fusion)
chain: B5 chain with W11V, H18Y, S22V, P28T, G71A, K81E, R87Y
notes: as for B1
B22: CD80_200-Fc, variant CD80 IgV-Fc K9N/E10R/H18V/T28Y/A71G (Fc fusion)
chain: B5 chain with K9N, G10R, W11V, H18V, S22V, P28Y, K81E, R87Y
notes: as for B1
B23: CD80_202-Fc, variant CD80 IgV-Fc E7H/H18L/V20I/T28Y/D46S/A71G (Fc fusion)
chain: B5 chain with E7H, G10E, W11V, H18L, V20I, S22V, P28Y, D46S, K81E, R87Y
notes: as for B1
B24: CD80_203-Fc, variant CD80 IgV-Fc K9N/E10A/V11W/H18F/T28H/M47L/T62E/R73D (Fc fusion)
chain: VIHVTKEVNAWATLSCGFNVSVEELAQHRIYWQKEKKMVLTMMSGDLNIWPEYKNRTIFDIENNLSIVILALDPSDEGTYECVVLKYEKDAFKREHLAEVTLSVKADGSGGGGS[omitted - human IgG4 Fc with S228P (EU numbers)]
notes: as for B1
B25: CD80_204-Fc, variant CD80 IgV-Fc H18V/V20I/T28Y/E35G/M47V/R73E (Fc fusion)
chain: B24 chain with N9K, A10E, W11V, F18V, V20I, H28Y, E35G, L47V, E62T, D73E
notes: as for B1
B26: CD80_205-Fc, variant CD80 IgV-Fc E10G/D46K/L85E (Fc fusion)
chain: B1 chain with R9K, S10G, Y11V, L42M, D46K, M59F, M68V
notes: as for B1
B27: CD80_206-Fc, variant CD80 IgV-Fc E10G/H18T/Q27T/D46E/M47L (Fc fusion)
chain: B24 chain with N9K, A10G, W11V, F18T, Q27T, H28T, D46E, E62T, D73R
notes: as for B1

Biological target: T1, human CD28 (endogenously expressed on primary human T cells) (human, UniProt P10747 19-220)
T1 construct: whole, on cells
Test: flow cytometry, primary human T cells
Method: Binding affinity to CD28 was determined using primary human T cells which endogenously express CD28. Binding to PD-L1 was determined using SCC152 cells transduced with human PD-L1. Binding to CTLA-4 was measured using Chinese hamster ovary (CHO) cells stably transduced to express human CTLA-4.
For staining and analysis by flow cytometry, 75,000 human T cells, SCC152/PD-L1 cells, or CHO/CTLA-4 cells were plated in 96-well round-bottom plates. Cells were spun down and resuspended in staining buffer (PBS (phosphate buffered saline), 1% BSA (bovine serum albumin), 1 mM EDTA, and 0.1% sodium azide) for 20 minutes to block non-specific binding. Afterwards, cells were centrifuged, stain buffer aspirated, and then resuspended in 50 μL of a 1:5 serial dilution of each CD80-Fc candidate variant starting at 100 nM ending at 0.8 nM. Primary staining was performed on ice for 60 minutes, before washing cells in […] staining buffer three times. PE-conjugated anti-human Fc (Jackson ImmunoResearch, USA) was diluted 1:250 in 50 μL staining buffer and added to cells and incubated another 30 minutes at 4° C. Cells were washed two times in 150 μL stain buffer and then fixed in 2% formaldehyde/PBS for 5 minutes at room temperature. Samples were analyzed CytoFLEX LX flow cytometer (Beckman Coulter, USA). Median Fluorescence Intensity (MFI) was calculated for each cell type using the CytExpert software from Beckman Coulter.

Row | Binder | MFI (anti-human Fc) at 0.8 nM | MFI (anti-human Fc) at 4 nM | MFI (anti-human Fc) at 20 nM | MFI (anti-human Fc) at 100 nM | fold change of MFI vs WT CD80 at 20 nM
1 | B1 | 223 MFI | 372 MFI | 722 MFI | 1200 MFI | 4 fold
2 | B2 | 186 MFI | 202 MFI | 269 MFI | 436 MFI | 1.5 fold
3 | B3 | 276 MFI | 470 MFI | 796 MFI | 1190 MFI | 4.4 fold
4 | B4 | 183 MFI | 201 MFI | 272 MFI | 463 MFI | 1.5 fold
5 | B5 | 208 MFI | 170 MFI | 201 MFI | 255 MFI | 1.1 fold
6 | B6 | 186 MFI | 193 MFI | 202 MFI | 209 MFI | 1.1 fold
7 | B7 | 192 MFI | 194 MFI | 212 MFI | 246 MFI | 1.2 fold
8 | B8 | 216 MFI | 319 MFI | 633 MFI | 1470 MFI | 3.5 fold
9 | B9 | 436 MFI | 1030 MFI | 2850 MFI | 5470 MFI | 15.9 fold
10 | B10 | 571 MFI | 1230 MFI | 2350 MFI | 3180 MFI | 13.1 fold
11 | B11 | 556 MFI | 1190 MFI | 2210 MFI | 2780 MFI | 12.3 fold
12 | B12 | 183 MFI | 220 MFI | 298 MFI | 446 MFI | 1.7 fold
13 | B13 | 174 MFI | 175 MFI | 188 MFI | 205 MFI | 1 fold
14 | B14 | 197 MFI | 201 MFI | 175 MFI | 192 MFI | 1 fold
15 | B15 | 359 MFI | 600 MFI | 1030 MFI | 1570 MFI | 5.7 fold
16 | B16 | 268 MFI | 302 MFI | 401 MFI | 543 MFI | 2.2 fold
17 | B17 | 277 MFI | 295 MFI | 423 MFI | 640 MFI | 2.3 fold
18 | B18 | 236 MFI | 249 MFI | 267 MFI | 276 MFI | 1.5 fold
19 | B19 | 218 MFI | 293 MFI | 699 MFI | 1550 MFI | 3.9 fold
20 | B20 | 186 MFI | 197 MFI | 195 MFI | 205 MFI | 1.1 fold
21 | B21 | 222 MFI | 310 MFI | 493 MFI | 738 MFI | 2.7 fold
22 | B22 | 198 MFI | 268 MFI | 372 MFI | 497 MFI | 2.1 fold
23 | B23 | 226 MFI | 252 MFI | 387 MFI | 810 MFI | 2.1 fold
24 | B24 | 269 MFI | 341 MFI | 550 MFI | 993 MFI | 3.1 fold
25 | B25 | 289 MFI | 457 MFI | 971 MFI | 2110 MFI | 5.4 fold
26 | B26 | 233 MFI | 265 MFI | 299 MFI | 431 MFI | 1.7 fold
27 | B27 | 342 MFI | 565 MFI | 1210 MFI | 1580 MFI | 6.7 fold
